The BET-seq Pho4 binding data (Le et al. 2018)
The other results are listed elsewhere or left out. Values were computed here from the reads of four pooled replicates and scatter widely.

Each sequence was assayed against T1, Pho4 (S. cerevisiae) (UniProt P07270) (assay: relative binding free energy (BET-seq); higher = weaker binding). Settings: reference: library average.
T1 sequence: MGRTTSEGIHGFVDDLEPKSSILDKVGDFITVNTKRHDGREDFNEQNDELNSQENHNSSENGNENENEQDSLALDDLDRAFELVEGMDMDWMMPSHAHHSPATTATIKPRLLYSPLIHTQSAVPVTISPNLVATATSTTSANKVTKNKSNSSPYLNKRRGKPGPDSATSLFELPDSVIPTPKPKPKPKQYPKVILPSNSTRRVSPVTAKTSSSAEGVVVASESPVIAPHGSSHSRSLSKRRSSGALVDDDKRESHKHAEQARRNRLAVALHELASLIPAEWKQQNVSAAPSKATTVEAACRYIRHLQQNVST
In the case of GGAATCACGTGTGGAG, the “relative binding free energy” value is reported as 0.21 kcal/mol. In the case of TTCTGCACGTGCGGGG, the “relative binding free energy” value is reported as -0.06 kcal/mol. GACGGCACGTGTCGGT was tested, and the “relative binding free energy” value was 0.03 kcal/mol. For TTTTTCACGTGTAGGC, the “relative binding free energy” value was 0.27 kcal/mol. With ACGTGCACGTGTTTTT the “relative binding free energy” value was 0.01 kcal/mol. With AGGGTCACGTGTGCAA the “relative binding free energy” value was 0.11 kcal/mol. With GATGGCACGTGAGTGC the “relative binding free energy” value was 0.33 kcal/mol. With CTTCGCACGTGATGGT the “relative binding free energy” value was -0.01 kcal/mol. With TTGGGCACGTGTGCGC the “relative binding free energy” value was -0.1 kcal/mol. For TTGGCCACGTGATGGA, the “relative binding free energy” value was 0.08 kcal/mol. In the case of TGAATCACGTGAAATG, the “relative binding free energy” value is reported as 0.38 kcal/mol. In the case of GATAGCACGTGGGTTG, the “relative binding free energy” value is reported as -0.03 kcal/mol. For CGATTCACGTGTTTTG, the “relative binding free energy” value was 0.36 kcal/mol. In the case of GGATGCACGTGGATCG, the “relative binding free energy” value is reported as 0.04 kcal/mol. In the case of AGGGGCACGTGCACGT, the “relative binding free energy” value is reported as -0.23 kcal/mol. For AGTGTCACGTGGAGCT, the “relative binding free energy” value was -0.01 kcal/mol. With TGTGTCACGTGTCTTA the “relative binding free energy” value was 0.1 kcal/mol. ACTGTCACGTGTTATT was tested, and the “relative binding free energy” value was 0.18 kcal/mol. With GGATGCACGTGATGGG the “relative binding free energy” value was 0.2 kcal/mol. With TGACCCACGTGGGGTG the “relative binding free energy” value was -0.3 kcal/mol. AGCAGCACGTGGTTGT was tested, and the “relative binding free energy” value was -0.18 kcal/mol. GGCTTCACGTGTTTGA was tested, and the “relative binding free energy” value was 0.18 kcal/mol. For TTATACACGTGATAGA, the “relative binding free energy” value was 0.15 kcal/mol. In the case of CGGTGCACGTGGGGAG, the “relative binding free energy” value is reported as -0.14 kcal/mol. In the case of TGGGGCACGTGGCAAG, the “relative binding free energy” value is reported as -0.2 kcal/mol. GTGTACACGTGGTTTA was tested, and the “relative binding free energy” value was 0.06 kcal/mol. For TGGTGCACGTGTCGGA, the “relative binding free energy” value was 0.11 kcal/mol. With TAAGTCACGTGAGTTG the “relative binding free energy” value was 0.32 kcal/mol. TTTAGCACGTGCGATA was tested, and the “relative binding free energy” value was -0.08 kcal/mol. With GTGATCACGTGCAGTG the “relative binding free energy” value was 0.14 kcal/mol. In the case of AGGATCACGTGAAGAG, the “relative binding free energy” value is reported as 0.33 kcal/mol. In the case of CGTGGCACGTGATAAG, the “relative binding free energy” value is reported as -0.01 kcal/mol. For TGGGACACGTGTGTGT, the “relative binding free energy” value was 0.08 kcal/mol. With CAAGTCACGTGTAGTT the “relative binding free energy” value was 0.18 kcal/mol. TGGCACACGTGTTGTT was tested, and the “relative binding free energy” value was 0.1 kcal/mol. In the case of GTATTCACGTGGTGTA, the “relative binding free energy” value is reported as 0.23 kcal/mol. For AGATGCACGTGCAAGG, the “relative binding free energy” value was -0.07 kcal/mol. In the case of TGGGCCACGTGGAGGC, the “relative binding free energy” value is reported as -0.28 kcal/mol. In the case of TATTGCACGTGGCGTG, the “relative binding free energy” value is reported as -0.07 kcal/mol. CTTGGCACGTGTAGGG was tested, and the “relative binding free energy” value was -0.05 kcal/mol. For TATTACACGTGGTTCA, the “relative binding free energy” value was -0.09 kcal/mol. TGTTACACGTGGAATG was tested, and the “relative binding free energy” value was 0.06 kcal/mol. With AAGGTCACGTGCGTTT the “relative binding free energy” value was -0.01 kcal/mol. For ATGGGCACGTGAAGGC, the “relative binding free energy” value was 0.18 kcal/mol. In the case of GAGGACACGTGGTGTG, the “relative binding free energy” value is reported as 0.02 kcal/mol. With TTTTTCACGTGGTTCG the “relative binding free energy” value was 0.22 kcal/mol. With GGTAACACGTGAGTTA the “relative binding free energy” value was 0.43 kcal/mol. With GGTCACACGTGGGGCA the “relative binding free energy” value was -0.01 kcal/mol. TGTTACACGTGTAATT was tested, and the “relative binding free energy” value was 0.06 kcal/mol. In the case of AATAGCACGTGTGGGG, the “relative binding free energy” value is reported as 0.07 kcal/mol. GTGTTCACGTGTGAAT was tested, and the “relative binding free energy” value was 0.25 kcal/mol. In the case of AGTCACACGTGGGCGT, the “relative binding free energy” value is reported as -0.03 kcal/mol. With TCGTCCACGTGGTGTG the “relative binding free energy” value was -0.09 kcal/mol. In the case of TGGCACACGTGTCGGG, the “relative binding free energy” value is reported as 0.16 kcal/mol. For GGTATCACGTGGATGG, the “relative binding free energy” value was 0.2 kcal/mol. TTGTACACGTGCTGCT was tested, and the “relative binding free energy” value was 0.05 kcal/mol. For GAACTCACGTGTGGGG, the “relative binding free energy” value was 0.26 kcal/mol. For CTTTTCACGTGTTATT, the “relative binding free energy” value was 0.08 kcal/mol. For GTGTACACGTGGTTGG, the “relative binding free energy” value was 0.07 kcal/mol. AGTGGCACGTGGCTGA was tested, and the “relative binding free energy” value was -0.35 kcal/mol. For GGTTTCACGTGGTGGC, the “relative binding free energy” value was 0.31 kcal/mol. For GGCGGCACGTGCGTGC, the “relative binding free energy” value was -0.14 kcal/mol. For GTGTTCACGTGAATTT, the “relative binding free energy” value was 0.47 kcal/mol. With GCTGTCACGTGTCGGG the “relative binding free energy” value was 0.19 kcal/mol. For CTGTTCACGTGTGCAG, the “relative binding free energy” value was 0.17 kcal/mol. For TCTAACACGTGGAGGG, the “relative binding free energy” value was -0.05 kcal/mol. For CGTGTCACGTGGGACT, the “relative binding free energy” value was -0.01 kcal/mol. In the case of TGGTTCACGTGCGAAT, the “relative binding free energy” value is reported as 0.42 kcal/mol. For CATGTCACGTGGAGTG, the “relative binding free energy” value was 0.07 kcal/mol. In the case of GAATTCACGTGTGGTA, the “relative binding free energy” value is reported as 0.46 kcal/mol. TATATCACGTGAAGTT was tested, and the “relative binding free energy” value was 0.4 kcal/mol. ATGGTCACGTGCGGGC was tested, and the “relative binding free energy” value was -0.02 kcal/mol. With GCTGTCACGTGTAAGG the “relative binding free energy” value was 0.14 kcal/mol. With GTATGCACGTGTTCGA the “relative binding free energy” value was 0.05 kcal/mol. TTTGGCACGTGACAGG was tested, and the “relative binding free energy” value was -0.16 kcal/mol. GTAGGCACGTGTTGAC was tested, and the “relative binding free energy” value was 0.01 kcal/mol. With TGGCGCACGTGTGTCA the “relative binding free energy” value was -0.06 kcal/mol. In the case of CAGCACACGTGGGGGT, the “relative binding free energy” value is reported as -0.09 kcal/mol. TTTGACACGTGTTTCG was tested, and the “relative binding free energy” value was 0.08 kcal/mol. For TTGGACACGTGAGCTG, the “relative binding free energy” value was 0.04 kcal/mol. With AAGTACACGTGAAAGT the “relative binding free energy” value was 0.37 kcal/mol. TTATTCACGTGAAGTC was tested, and the “relative binding free energy” value was 0.4 kcal/mol. TCGTTCACGTGGATTG was tested, and the “relative binding free energy” value was 0.26 kcal/mol. TAATTCACGTGGTGCG was tested, and the “relative binding free energy” value was 0.27 kcal/mol. In the case of TGTTGCACGTGACTTG, the “relative binding free energy” value is reported as -0.01 kcal/mol. In the case of GAATACACGTGGGTCG, the “relative binding free energy” value is reported as 0.09 kcal/mol. For GCGGGCACGTGGGTCG, the “relative binding free energy” value was -0.18 kcal/mol. For GGGTGCACGTGCCGTA, the “relative binding free energy” value was -0.15 kcal/mol. In the case of GCATTCACGTGTGGCG, the “relative binding free energy” value is reported as 0.42 kcal/mol. In the case of GAGTTCACGTGGTGAT, the “relative binding free energy” value is reported as 0.32 kcal/mol. In the case of CGCGGCACGTGGGGAG, the “relative binding free energy” value is reported as -0.31 kcal/mol. With CGAGACACGTGGTCGG the “relative binding free energy” value was -0.01 kcal/mol. For TATGGCACGTGTTAAC, the “relative binding free energy” value was -0.09 kcal/mol. With CGGGGCACGTGGCTAG the “relative binding free energy” value was -0.22 kcal/mol. For AAAAGCACGTGGTTTT, the “relative binding free energy” value was -0.14 kcal/mol. In the case of AAATTCACGTGTAAGT, the “relative binding free energy” value is reported as 0.28 kcal/mol. TTGCACACGTGTAGGG was tested, and the “relative binding free energy” value was -0.03 kcal/mol. For TTAGTCACGTGAGGCT, the “relative binding free energy” value was 0.28 kcal/mol. For GGGCACACGTGTTTGA, the “relative binding free energy” value was 0.15 kcal/mol. With ACGGGCACGTGGTTAT the “relative binding free energy” value was -0.14 kcal/mol. TTATACACGTGGGCAG was tested, and the “relative binding free energy” value was -0.15 kcal/mol. In the case of AATGGCACGTGATGTG, the “relative binding free energy” value is reported as 0.01 kcal/mol. In the case of TTGTGCACGTGGGACC, the “relative binding free energy” value is reported as -0.15 kcal/mol. TTCGACACGTGTTCGG was tested, and the “relative binding free energy” value was 0.1 kcal/mol. AAGAGCACGTGAGGGG was tested, and the “relative binding free energy” value was 0.11 kcal/mol. With GTGATCACGTGGAGAG the “relative binding free energy” value was 0.12 kcal/mol. For CATTACACGTGTAGGA, the “relative binding free energy” value was 0.32 kcal/mol. AACGGCACGTGATAGT was tested, and the “relative binding free energy” value was 0.14 kcal/mol. With ATGATCACGTGAGGGG the “relative binding free energy” value was 0.27 kcal/mol. ATATTCACGTGCAGTG was tested, and the “relative binding free energy” value was 0.04 kcal/mol. With GTGGACACGTGGAGCG the “relative binding free energy” value was 0.08 kcal/mol. With GGGCTCACGTGATGGA the “relative binding free energy” value was 0.51 kcal/mol. TATGCCACGTGGTTGG was tested, and the “relative binding free energy” value was -0.14 kcal/mol. In the case of AAAGGCACGTGTTTTA, the “relative binding free energy” value is reported as -0.14 kcal/mol. For GTGGTCACGTGGTACT, the “relative binding free energy” value was 0.04 kcal/mol. AATTTCACGTGCTTTT was tested, and the “relative binding free energy” value was 0.18 kcal/mol. With TACTTCACGTGTATGT the “relative binding free energy” value was 0.16 kcal/mol. For TGAGGCACGTGCTGAT, the “relative binding free energy” value was -0.22 kcal/mol. In the case of TTGGTCACGTGCGGCA, the “relative binding free energy” value is reported as -0.03 kcal/mol. With CTTTACACGTGGGTTA the “relative binding free energy” value was 0.08 kcal/mol. In the case of GGTACCACGTGCGTGG, the “relative binding free energy” value is reported as -0.15 kcal/mol. With AGAGCCACGTGATGGG the “relative binding free energy” value was -0.01 kcal/mol. TGGCCCACGTGCGTGG was tested, and the “relative binding free energy” value was -0.2 kcal/mol. With GATGGCACGTGAAATA the “relative binding free energy” value was 0.4 kcal/mol. With GTGAGCACGTGGTTTA the “relative binding free energy” value was -0.19 kcal/mol. With GAAGACACGTGGGGGG the “relative binding free energy” value was -0.05 kcal/mol. For CTGGCCACGTGACGGG, the “relative binding free energy” value was 0.18 kcal/mol. For TGTGGCACGTGAGCGG, the “relative binding free energy” value was 0.09 kcal/mol. With GATTGCACGTGTAAGT the “relative binding free energy” value was 0.27 kcal/mol. GTTGCCACGTGGTAGG was tested, and the “relative binding free energy” value was -0.13 kcal/mol. In the case of GTGGTCACGTGCAAAT, the “relative binding free energy” value is reported as 0.21 kcal/mol. For AGGTGCACGTGAGGCA, the “relative binding free energy” value was 0.1 kcal/mol. In the case of TGAGACACGTGAGGAT, the “relative binding free energy” value is reported as 0.16 kcal/mol. TACGTCACGTGTTGGG was tested, and the “relative binding free energy” value was 0.13 kcal/mol. With ATTTACACGTGGGGCA the “relative binding free energy” value was -0.02 kcal/mol. For GAATTCACGTGGGTCT, the “relative binding free energy” value was 0.33 kcal/mol. In the case of TGTCTCACGTGCTAGG, the “relative binding free energy” value is reported as 0.17 kcal/mol. With GGTTTCACGTGCGATA the “relative binding free energy” value was 0.26 kcal/mol. With AGAAGCACGTGTGGGC the “relative binding free energy” value was 0.07 kcal/mol. ATATCCACGTGTAGTT was tested, and the “relative binding free energy” value was -0.05 kcal/mol. With AGTGTCACGTGGAATG the “relative binding free energy” value was 0.07 kcal/mol. With AGGTTCACGTGTTGAT the “relative binding free energy” value was 0.17 kcal/mol. In the case of GTTAGCACGTGGATTT, the “relative binding free energy” value is reported as -0.01 kcal/mol. For TGAAGCACGTGAGAGT, the “relative binding free energy” value was 0.2 kcal/mol. For GGGGGCACGTGCGTAC, the “relative binding free energy” value was -0.18 kcal/mol. For TTACGCACGTGATTTT, the “relative binding free energy” value was -0.04 kcal/mol.
